Laboratory results published in patent US20060053496A1 (UNIVERSITY OF NORTH CAROLINA AT CHAPEL HILL, published 2006).

Target: T1, FLAG-tagged Monarch-1 (human, UniProt P59046 1-1061)
T1 construct: Expressed in transfected 293T cells and immunoprecipitated from lysate with anti-FLAG M2-agarose; also called FLAG-Monarch-1; Caterpiller 19.3; not shown: N-terminal FLAG tag added by PCR
T1 sequence: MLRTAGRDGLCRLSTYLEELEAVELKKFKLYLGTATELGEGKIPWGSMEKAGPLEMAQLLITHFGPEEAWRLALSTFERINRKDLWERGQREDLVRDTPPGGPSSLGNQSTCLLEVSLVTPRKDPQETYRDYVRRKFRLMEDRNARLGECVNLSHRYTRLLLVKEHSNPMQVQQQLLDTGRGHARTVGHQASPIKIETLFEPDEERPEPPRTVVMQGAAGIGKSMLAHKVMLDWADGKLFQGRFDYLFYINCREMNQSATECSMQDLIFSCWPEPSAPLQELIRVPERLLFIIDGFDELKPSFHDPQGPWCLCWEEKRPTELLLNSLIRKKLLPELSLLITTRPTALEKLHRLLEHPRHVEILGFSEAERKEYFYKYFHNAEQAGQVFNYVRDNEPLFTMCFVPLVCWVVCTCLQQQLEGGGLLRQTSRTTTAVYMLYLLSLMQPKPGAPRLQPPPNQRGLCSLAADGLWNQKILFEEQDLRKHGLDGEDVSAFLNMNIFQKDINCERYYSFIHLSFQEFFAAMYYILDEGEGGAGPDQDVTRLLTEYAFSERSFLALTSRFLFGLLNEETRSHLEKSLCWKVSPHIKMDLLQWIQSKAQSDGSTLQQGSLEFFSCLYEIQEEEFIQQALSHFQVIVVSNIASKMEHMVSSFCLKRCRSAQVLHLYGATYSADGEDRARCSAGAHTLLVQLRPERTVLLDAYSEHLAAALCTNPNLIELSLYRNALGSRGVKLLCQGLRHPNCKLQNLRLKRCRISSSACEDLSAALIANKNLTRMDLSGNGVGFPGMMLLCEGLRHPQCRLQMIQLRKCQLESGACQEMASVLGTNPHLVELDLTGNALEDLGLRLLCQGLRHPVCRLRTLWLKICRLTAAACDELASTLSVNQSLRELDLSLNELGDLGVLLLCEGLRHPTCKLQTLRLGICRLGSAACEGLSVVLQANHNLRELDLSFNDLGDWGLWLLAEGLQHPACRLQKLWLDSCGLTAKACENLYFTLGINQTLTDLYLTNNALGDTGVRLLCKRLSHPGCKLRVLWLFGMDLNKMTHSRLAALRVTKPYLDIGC
Test: co-immunoprecipitation from transfected 293T cells (anti-FLAG M2-agarose IP, anti-HA western blot)
Description: Transfections and Immunoprecipitations. 2.5 million 293T cells were seeded in 10-cm cell culture plates. Eighteen to twenty-four hours later, 3 μg of each of the indicated plasmids was transfected using FUGENE6™ (Roche, Indianapolis, Ind.) at a 3:1 FUGENE6™ to DNA ratio and the cells were incubated an additional 18 to 24 hours. Cells were lysed in 0.5% NP-40, 150 mM NaCl, 50 mM Tris pH 8.0, 160 mM EDTA, 50 mM NaF, 10 mM sodium phosphate supplemented with protease inhibitor cocktail (Roche, Indianapolis, Ind.). Nuclei were removed and the resulting supernatant was pre-cleared with mouse IgG-conjugated agarose (Sigma, St. Louis) for 1 hour. FLAG®-tagged proteins were subsequently immunoprecipitated overnight with 35 μl M2-agarose equilibrated in lysis buffer. Beads were washed four times in lysis buffer and proteins eluted in sample buffer (20% Glycerol, 4% SDS, 130 mM Tris pH 6.8, 20 mM DTT) for western blot analysis.
Monarch-1 Associates with TRAF6 but not MyD88 or IRAK1. In addition to the proteins identified by MALDI-MS, 293T cells were transfected with Monarch-1 cDNA and one of the following: HA-MyD88, HA-TRAF6, or HA-IRAK1. Twenty-four hours later the cells were lysed and Monarch-1-containing protein complexes were immunoprecipitated with anti-FLAG® M2-agarose beads overnight. […]

binding result: no binding
B1: HA-MyD88 (other, human, UniProt Q99836 1-296, looked up)
chain: MAAGGPGAGSAAPVSSTSSLPLAALNMRVRRRLSLFLNVRTQVAADWTALAEEMDFEYLEIRQLETQADPTGRLLDAWQGRPGASVGRLLELLTKLGRDDVLLELGPSIEEDCQKYILKQQQEEAEKPLQVAAVDSSVPRTAELAGITTLDDPLGHMPERFDAFICYCPSDIQFVQEMIRQLEQTNYRLKLCVSDRDVLPGTCVWSIASELIEKRCRRMVVVVSDDYLQSKECDFQTKFALSLSPGAHQKRLIPIKYKAMKKEFPSILRFITVCDYTNPCTKSWFWTRLAKALSLP
notes: not shown: double 5' (N-terminal) HA tag
